According to PubChem BioAssay (NCI):
Where “and” joins values, the source holds several entries; their conditions need not be identical. Equal values may be shown once.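 Interpolation was linear, between the two tested concentrations surrounding the appropriate level; five concentrations were tested over 48 hours in 96-well plates. The concentration for 50% growth inhibition is given as GI50. TGI: concentration producing complete growth inhibition.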

Tested on: NCI-H322M lung
Test: DTP human tumour cell line panel, 48 h

Q: For `CCO.CCO.Oc1ccc(Nc2ncns2)cc1.Oc1ccc(Nc2ncns2)cc1.[Ti]`, which GI50 is on record?
A: Its GI50 is 22 µM.

Q: What about the TGI of the same molecule?
A: Its TGI is 93.6 µM.

Q: `CC(C)CC(NC(=O)C(CSc1ccc([N+](=O)[O-])cc1)Cc1ccccc1)C(=O)Nc1ccccc1` (stereo not given) was tested. Which TGI did it give?
A: Its TGI is over 100 µM.

Q: Which TGI does the source give for `CN(C)CCOc1ccc2[nH]c(C(=O)N3CC(CCl)c4c3cc(NC(=O)OCc3ccc([N+](=O)[O-])cc3)c3ccccc43)cc2c1` (stereo not given) here?
A: Its TGI is 2.34 µM.

Q: How did the TGI turn out when `O=C1/C(=N\n2c(-c3ccncc3)n[nH]c2=S)c2cc(Cl)ccc2N1CN1CCCCC1` was run?
A: Its TGI is over 100 µM.

Q: Which results are given for `CS(=O)(=O)c1ccc(Oc2cc(F)cc(C#N)c2)c2c1[C@H](O)[C@H](F)[C@H]2F`?
A: GI50: > 100 µM; TGI: > 100 µM

Q: For `CC12CCC(=O)N1c1cnccc1N2` (stereo not given), which TGI is on record?
A: The TGI was over 100 µM.

Q: With `CC(C)Oc1c(N(Cc2ccccc2)c2ccccc2C2SCCCS2)c(=O)c1=O` as the molecule, how does the TGI read?
A: Its TGI is over 100 µM.

Q: `NNC(=O)c1n[nH]n(N)c1=S` was tested. Which TGI did it give?
A: Its TGI is over 100 µM.

Q: For `NC(=Nc1ccc(S(=O)(=O)Nc2cnc3ccccc3n2)cc1)/N=C(/N)Nc1ccc(Br)cc1`, which TGI is on record?
A: The TGI was over 100 µM.

Q: `NC(=O)c1nnsc1N/N=C/c1ccc([N+](=O)[O-])cc1` was tested. Which TGI did it give?
A: Its TGI is over 100 µM.

Q: `CC[C@]1(O)CC2CN(CCCc3c([nH]c4ccccc34)[C@@](C(=O)OC)(c3cc4c(cc3OC)N(C)C3C45CCN4CC=C[C@](CC)(C45)C(OC(C)=O)[C@@]3(O)C(=O)OC)C2)C1` (stereo not given in full) was tested. Which TGI did it give?
A: The TGI was over 10 µM.

Q: Which results are given for `CCSC(=O)N1c2ccc(OC)cc2C=CC1C#N` (stereo not given)?
A: GI50: 2.6 µM; TGI: > 1000 µM

Q: How did the GI50 turn out when `COc1ccc(-c2nn(C(=O)NCCN(C)C)cc2-c2ccncc2)cc1Cl` was run?
A: The GI50 was 27.2 µM.

Q: And the TGI?
A: Its TGI is over 100 µM.

Q: What does the source list for `CCN(CC)CCOc1cccc2nc3c(cc12)Cn1c-3cc2c(c1=O)COC(=O)C2(O)CC` (stereo not given)?
A: GI50: 3.29 µM and 5.7 µM; TGI: 18.8 µM and 29.5 µM

Q: For `COc1cc(/C=C2\CN(S(=O)(=O)c3ccc(C)cc3)C/C(=C\c3cc(CN4CCOCC4)c(O)c(OC)c3)C2=O)cc(CN2CCOCC2)c1O`, which GI50 is on record?
A: The GI50 was 6.17 µM.

Q: And the TGI?
A: The TGI was over 100 µM.

Q: How did the TGI turn out when `Cc1cccc2c1CC1(Cc3ccccc3C1=O)C2=O` (stereo not given) was run?
A: Its TGI is over 100 µM.

Q: What does the source list for `CCOC(=O)c1ccc2c(c1)nc(-c1ccc(Cl)cc1)n2-c1cc(C(C)(C)C)[nH]n1`?
A: GI50: 5.75 µM; TGI: > 100 µM

Q: With `O=C(O)c1ccc(Cc2ccccc2C(=O)O)cc1` as the molecule, how does the TGI read?
A: Its TGI is over 100 µM.

Q: With `CCCCCCCC/C=C(\Br)C(O)C(Br)Br` (stereo not given) as the molecule, how does the TGI read?
A: The TGI was over 100 µM.

Q: Which results are given for `Cc1nc2ccc(Nc3nc(Cl)nc(Nc4ccc(F)cc4)n3)cc2n1Cc1ccccc1`?
A: GI50: 7.51 µM; TGI: 20.9 µM

Q: How did the TGI turn out when `Cc1ncc(-c2nnnn2-c2ccccc2)c(C(=O)O)n1` was run?
A: The TGI was over 100 µM.

Q: How did the TGI turn out when `CC(C)(c1cn(Cc2ccccc2)c2ccccc12)c1cn(Cc2ccccc2)c2ccccc12` was run?
A: The TGI was over 100 µM.

Q: For `CN1CCC(SC2Cc3cc(Cl)ccc3Sc3ccccc32)CC1` (stereo not given), which TGI is on record?
A: Its TGI is 26.2 µM.

Q: With `CC(=O)Nc1nc2ncc(C=O)nc2c(=O)[nH]1` as the molecule, how does the TGI read?
A: The TGI was over 100 µM.

Q: For `CCn1c2ccccc2c2nnc(NCCCO)nc21`, which TGI is on record?
A: Its TGI is over 100 µM.

Q: For `CCC1(CC)C(=O)N(C(=O)c2ccc(C)cc2)N(C(=O)c2ccc(C)cc2)C1=O`, which TGI is on record?
A: Its TGI is over 75 µM.

Q: Which TGI does the source give for `Cn1c(-c2ccccc2)c2cc3nc4ccccc4nc3cc2c1-c1ccccc1` here?
A: The TGI was over 100 µM.

Q: Which TGI does the source give for `Cc1nc(N)nc(N)c1CCCCc1ccccc1` here?
A: Its TGI is 72.4 µM.

Q: Which TGI does the source give for `Nc1nc(N)c(-c2cccc(C(F)(F)F)c2)c(Cc2cccc(C(F)(F)F)c2)n1` here?
A: Its TGI is 16.2 µM.

Q: Which TGI does the source give for `Cc1cc(C)c2ccc(N3CCNCC3)nc2n1` here?
A: The TGI was over 100 µM.

Q: `COc1c(Cl)cc(Cl)cc1S(=O)O` was tested. Which TGI did it give?
A: Its TGI is over 100 µM.

Q: For `Cc1ccccc1NC(=O)c1cc2cc(N=Nc3ccccc3C(=O)O)ccc2oc1=O`, which TGI is on record?
A: The TGI was 29.4 µM.

Q: With `[N-]=[N+]=NC1=C(C(=O)c2ccccc2)C(=O)c2cccc3cccc1c23` as the molecule, how does the TGI read?
A: Its TGI is over 100 µM.

Q: How did the TGI turn out when `Nc1ccn(C2OC(CO)C(O)C2(F)F)c(=O)n1` (stereo not given) was run?
A: Its TGI is over 100 µM.

Q: Which TGI does the source give for `CCCCCCCCCCOC1C(C(O)CNCCCN(C)C)OC2OC3(CCCCC3)OC21` (stereo not given) here?
A: Its TGI is 17.9 µM.

Q: How did the TGI turn out when `COc1ccc(OC)c(C(=O)c2cccc(C(=O)c3cc(OC)ccc3OC)n2)c1` was run?
A: The TGI was over 100 µM.

Q: `O=C1CSC(c2cccc([N+](=O)[O-])c2)N1c1ccc(-c2ccc(-n3c(-c4ccccc4)nc4ccccc4c3=O)cc2)cc1` (stereo not given) was tested. Which TGI did it give?
A: The TGI was over 100 µM.

Q: With `O=C1/C(=C/c2ccc(O)c(CN3CCCCC3)c2)CCC/C1=C\c1ccc(O)c(CN2CCCCC2)c1` as the molecule, how does the TGI read?
A: Its TGI is 33.6 µM.

Q: For `CN(C)CCCNC(=O)c1c(-c2cccnc2)cnc2ccccc12`, which TGI is on record?
A: Its TGI is over 100 µM.

Q: `OCCN(CCO)CCn1cnc2c(NCc3ccccc3)ncnc21` was tested. Which TGI did it give?
A: The TGI was over 100 µM.

Q: `O=C(c1ccccc1)c1c(C(F)(F)F)n([O-])c2ccc(F)cc2[n+]1=O` was tested. Which GI50 did it give?
A: Its GI50 is 1.89 µM.

Q: What about the TGI of the same molecule?
A: The TGI was 3.78 µM.

Q: `CCOC(=O)C1C(=O)CN2CCc3c([nH]c4ccccc34)C12C(=O)OCC` (stereo not given) was tested. Which TGI did it give?
A: Its TGI is over 100 µM.

Q: How did the TGI turn out when `Cc1csc(-n2nc(C)cc2C)n1` was run?
A: Its TGI is over 100 µM.

Q: Which results are given for `c1ccc(CSCCNCCN(CCNCCSCc2ccccc2)CCNCCSCc2ccccc2)cc1`?
A: GI50: 1.35 µM; TGI: 2.66 µM

Q: `O=C(Nc1ccccc1)C(=O)C(C(=O)c1ccccc1F)C1OC(=O)c2ccccc21` (stereo not given) was tested. Which TGI did it give?
A: The TGI was 75.9 µM.

Q: What does the source list for `O=C(O)CN(CCN(CC(=O)O)CC(=O)O)CC(=O)O`?
A: GI50: > 100 µM; TGI: > 100 µM

Q: With `N#CC12CC3=C(N=C1NC1=C(CCc4ccccc41)C2)c1ccccc1CC3` (stereo not given) as the molecule, how does the TGI read?
A: The TGI was over 73.9 µM.

Q: Which TGI does the source give for `S=c1ncc2n[nH]nc2[nH]1` here?
A: The TGI was over 100 µM.

Q: `CCc1ccccc1NC(=O)C1=C(C)NC(C)=C(C(=O)Nc2ccccc2CC)C1c1cccc([N+](=O)[O-])c1` was tested. Which TGI did it give?
A: The TGI was over 100 µM.

Q: How did the TGI turn out when `COc1ccc(-n2c(N)c(C#N)c(C#N)c2-c2cccc([N+](=O)[O-])c2)cc1` was run?
A: Its TGI is over 100 µM.

Q: Which TGI does the source give for `COc1ccc(-c2cc(=O)c3cc(C)cnc3[nH]2)cc1` here?
A: The TGI was over 100 µM.

Q: What does the source list for `COc1ccc(-c2cc(=O)oc3ccc(Cl)cc23)cc1F`?
A: GI50: 0.868 µM and 2.59 µM; TGI: > 100 µM

Q: With `Cc1ccc(S(=O)(=O)CC(=O)CC(=O)C(=O)Nc2cccc(C(F)(F)F)c2)cc1` as the molecule, how does the TGI read?
A: Its TGI is over 100 µM.

Q: With `O=C(CNC(=O)c1ccccc1)Oc1c(Cl)c(Cl)c(Cl)c(Cl)c1Cl` as the molecule, how does the TGI read?
A: The TGI was 61.9 µM.

Q: With `O=C(c1ccccc1)C(c1ccccc1)C1(O)C(=O)Nc2c(Cl)ccc(Cl)c21` (stereo not given) as the molecule, how does the TGI read?
A: The TGI was 70.1 µM.

Q: Which TGI does the source give for `CN(C)C(=O)N(CCCl)N=O` here?
A: Its TGI is over 100 µM.

Q: Which results are given for `CCCCCCCCCCCC[C@@H](O)[C@H]1CC[C@H]([C@H](O)CCCC[C@H](O)CCCCC[C@@H](O)CC2=C[C@H](C)OC2=O)O1`?
A: GI50: 0.31 µM; TGI: 9.8 µM and 18.8 µM

Q: `CCOC(=O)/C(=N/Nc1ccc(C)cc1)N1C(=S)C=C(C)NN(C)C1=S` was tested. Which TGI did it give?
A: The TGI was over 100 µM.

Q: Which TGI does the source give for `CC(C)=Cc1cc2c(cc1O)CCC1C2CC[C@@]2(C)C1CC[C@@H]2O` (stereo not given in full) here?
A: The TGI was 18 µM.

Q: Which TGI does the source give for `O=C(/C=C/c1ccccc1F)c1ccc([N+](=O)[O-])cc1` here?
A: The TGI was over 100 µM.

Q: Which TGI does the source give for `CC1(c2ccccc2)N=C(C(N)=O)c2[nH]cnc2N1` (stereo not given) here?
A: Its TGI is over 100 µM.

Q: With `Nc1cc(C(=O)NC2C3CC4CC(C3)CC2C4)[nH]c(=S)n1` (stereo not given) as the molecule, how does the TGI read?
A: Its TGI is over 100 µM.

Q: For `CCN(CC)c1ccc(C2=NN(C(C)=O)C(c3cc(OC)c(OC)c(OC)c3)C2)cc1` (stereo not given), which GI50 is on record?
A: The GI50 was 0.904 µM.

Q: And the TGI?
A: Its TGI is 11.9 µM.

Q: Which TGI does the source give for `CC(C)=CCC/C(C)=C/CCC(C(=O)COCc1ccccc1)P1(=O)OC(C)(C)CN1C(C)(C)C` (stereo not given) here?
A: Its TGI is over 100 µM.

Q: How did the GI50 turn out when `OCc1cn(Cc2ccc(Cl)cc2)c2ccccc12` was run?
A: The GI50 was 11.1 µM.

Q: What about the TGI of the same molecule?
A: Its TGI is 68.5 µM.

Q: Which TGI does the source give for `NC1CCCCC1` here?
A: Its TGI is over 562 µM.

Q: With `Cc1cc(C(=O)CBr)c(CN2C(=O)c3ccccc3C2=O)c(=O)n1C` as the molecule, how does the TGI read?
A: Its TGI is 84.4 µM.

Q: Which GI50 does the source give for `Cc1ccc(/C=C2\COc3ccc(O)c(O)c3C2=O)cc1` here?
A: The GI50 was 2.6 µM.

Q: What about the TGI of the same molecule?
A: Its TGI is 11.3 µM.

Q: What does the source list for `O=C1c2ccccc2C(=O)c2c(Nc3ccc(CCO)cc3)ccc(O)c21`?
A: GI50: 14.7 µM; TGI: > 100 µM

Q: How did the TGI turn out when `CN(C)C(=S)OC(Cn1cncn1)c1ccc(Cl)cc1Cl` (stereo not given) was run?
A: The TGI was over 100 µM.

Q: Which results are given for `COc1cc2cc(c1Cl)N(C)C(=O)C[C@H](OC(=O)[C@H](C)N(C)C(=O)CCS)C[C@]1(C)O[C@H]1[C@H](C)[C@@H]1C[C@@](O)(NC(=O)O1)[C@H](OC)/C=C/C=C(\C)C2`?
A: GI50: < 0.005 µM; TGI: > 50 µM

Q: Which TGI does the source give for `CN(C)c1ccc(C2SCC(=O)N2c2nc3cc4sc(N5C(=O)CSC5c5ccc(N(C)C)cc5)nc4cc3s2)cc1` (stereo not given) here?
A: Its TGI is over 100 µM.
